Measurements from the supplement of paper PMC12645437, “Orthogonal IMiD-Degron Pairs Induce Selective Protein Degradation in Cells” (ACS Chemical Biology, 2025).
The other results are listed elsewhere or left out.

Biological target: no compound (DMSO)
Assay: log2 fold change of degron read counts, EGFP-low vs EGFP+ sorted cells; higher = lower degron-EGFP level without compound (poor expression or instability)
Details: compound: DMSO control; 18 h
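Further: jurkat cells carrying a lentiviral library of mutant zinc finger degrons fused to EGFP plus mCherry, mCherry+ cells FACS sorted, degron abundance counted by next-generation sequencing.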

Row | Sequence | log2 fold change of degron read counts
1 | LCCPICGFKCTQKGNLLRHIKL | 0.37
2 | FDCEICGRCFTQKGNLLRHIKL | -0.434
3 | FCCDQCGAIFTQKGNLLRHIKL | -1.32
4 | FACEICGHSFTQKGNLLRHIKL | -2.35
5 | FLCEVCGAEFTQKGNLLRHIKL | -1.08
6 | FWCPQCGACFTQKGNLLRHIKL | 0.975
7 | FMCPQCGAIFTQKGNLLRHIKL | 0.746
8 | FQCPQCGAYFTQKGNLLRHIKL | -0.864
9 | FTCPICGALFTQKGNLLRHIKL | -0.0163
10 | FNCNQCGHQFTQKGNLLRHIKL | -0.0982
11 | FMCNICGANFTQKGNLLRHIKL | -0.097
12 | FHCEICGAMFTQKGNLLRHIKL | -1.1
13 | FMCEQCGAMFTQKGNLLRHIKL | -1.2
14 | FKCNQCGHNFTQKGNLLRHIKL | 0.266
15 | FICEVCGAEFTQKGNLLRHIKL | -2.8
16 | FSCPICGAVFTQKGNLLRHIKL | 0.4

Row | Sequence | log2 fold change of degron read counts
17 | FWCEVCGADFTQKGNLLRHIKL | -1.2
18 | FQCPICGAEFTQKGNLLRHIKL | -0.597
19 | FDCEICGHQFTQKGNLLRHIKL | -1.16
20 | FVCPVCGAAFTQKGNLLRHIKL | -0.307
21 | LRCEICGFRCTQKGNLLRHIKL | 0.282
22 | FECNQCGRAFTQKGNLLRHIKL | -0.84
23 | FTCNQCGHWFTQKGNLLRHIKL | 0.225
24 | FFCEICGRTFTQKGNLLRHIKL | -2
25 | FMCDVCGAKFTQKGNLLRHIKL | -1.13
26 | FICPICGHDFTQKGNLLRHIKL | -1.01
27 | FKCNQCGRNFTQKGNLLRHIKL | -1.02
28 | FRCDVCGAKFTQKGNLLRHIKL | -1.55
29 | FFCDICGAEFTQKGNLLRHIKL | -2.32
30 | FECNVCGAQFTQKGNLLRHIKL | -2.63
31 | FFCPICGRLFTQKGNLLRHIKL | 0.489
32 | FKCNQCGHVFTQKGNLLRHIKL | 0.0079
